In the supplement of paper PMC4604168 (melanoma cell lines):
The list shows a part of the results. Most values come without repeats; read them as rough.

Each compound was assayed on COLO829 (assay: cell count relative to DMSO control; melanoma cells; higher = more viable cells). Settings: library dose: standard library concentration; 72 h.
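Further: cells treated in 1,536-well plates, then fixed and DAPI-stained, with nuclei counted from automated high-throughput microscope images.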

Compound	cell count [%]
Cc1cn(-c2cc(NC(=O)c3ccc(C)c(Nc4nccc(-c5cccnc5)n4)c3)cc(C(F)(F)F)c2)cn1 [nilotinib] + O=C(CCCCCCC(=O)Nc1ccccc1)NO [vorinostat] (first compound 1 µM, partner dose 0.4 µM)	110
COc1ccc(C2=N[C@@H](c3ccc(Cl)cc3)[C@@H](c3ccc(Cl)cc3)N2C(=O)N2CCNC(=O)C2)c(OC(C)C)c1 [Nutlin-3] + O=C(O)c1ccc2c(c1)nc(Nc1cccc(Cl)c1)c1ccncc12 [CX4945] (first compound 0.5 µM, partner dose 2 µM)	20.2
Cc1cc(Nc2cc(N3CCN(C)CC3)nc(/C=C/c3ccccc3)n2)n[nH]1 + Cn1cc(/C=C2\C(=O)Nc3cccnc32)c2ccccc21 [GW441756] (first compound 0.2 µM, partner dose 2 µM)	90.7
Cc1cn(-c2cc(NC(=O)c3ccc(C)c(Nc4nccc(-c5cccnc5)n4)c3)cc(C(F)(F)F)c2)cn1 [nilotinib] + CCCS(=O)(=O)Nc1ccc(F)c(C(=O)c2c[nH]c3ncc(Cl)cc23)c1F [PLX4720] (first compound 1 µM, partner dose 0.4 µM)	72
Cn1c(=O)n(-c2ccc(C(C)(C)C#N)cc2)c2c3cc(-c4cnc5ccccc5c4)ccc3ncc21 + CC(C)(C)c1cnc(CSc2cnc(NC(=O)C3CCNCC3)s2)o1 [SNS-032] (first compound 0.02 µM, partner dose 0.05 µM)	83.2
